We go through 107 compounds from PubChem BioAssay AID1240 (Sanford-Burnham Center for Chemical Genomics, 2008).

Among all 50,000 compounds or so, about 800 (1.6%) showed an effect of 50% or more. The list shows a part of the results.

In this assay the target is Bcl-2-like protein 10 (Homo sapiens) (UniProt Q9HD36). Put plainly: TR3 peptide-Bcl-B binding displacers, biochemical primary FP assay, phenotype converters (AID 1240).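 Further: 0% = Bcl-B with tracer peptide and DMSO and 100% = tracer peptide lacking Bcl-B.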 The following applies: GST-Bcl-B / FITC-TR3 peptide fluorescence polarization; stronger effect = higher value; compound at 3.75 mg/L.
Sequence of UniProt Q9HD36 (Q9HD36 whole entry, looked up): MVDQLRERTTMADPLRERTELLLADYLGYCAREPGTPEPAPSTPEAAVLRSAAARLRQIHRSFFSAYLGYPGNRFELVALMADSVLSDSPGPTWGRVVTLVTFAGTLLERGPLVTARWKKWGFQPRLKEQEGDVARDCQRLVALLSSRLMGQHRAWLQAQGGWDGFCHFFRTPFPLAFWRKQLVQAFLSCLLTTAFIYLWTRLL
As for `Cc1cc(Cl)cc(Cl)c1OCCCCN1CCCCC1`, the displacement was determined as 6.3%. As to `Cc1ccc(F)c(N/C=C/C(=O)c2ccc(Br)cc2)c1`, the displacement came out at 7%.

As for `COc1cccc(C2NC(=S)NC(C)=C2C(=O)Nc2ccccc2OC)c1` (configuration not stated), the displacement is -4%. The figure for `CCOc1ccc(C=NN2CCN(c3ccccn3)CC2)cc1` is -12.7%. To `COc1ccc(C(=O)N2CCN(c3ccc(F)cc3)CC2)cc1[N+](=O)[O-]` belongs 12.4%; to `O=C1CSC(=O)N1CCN1C(=O)S/C(=C\c2ccc(Br)cc2)C1=O`, -8.2%. The figure for `Cc1cc(C)n(S(=O)(=O)c2ccc3c(c2)C(=O)c2cc(S(=O)(=O)n4nc(C)cc4C)ccc2-3)n1` is 18.4%. With `CCOc1ccccc1CN(CCc1ccc2c(c1)OCO2)Cc1ccc(OC)c(OC)c1OC`, the displacement is -1%. To `CCOc1ccc(NC(=O)CC2SC(N)=NC2=O)cc1` (configuration not stated) belongs 0.1%; to `O=S(=O)(NCCSc1nc2ccccc2[nH]1)c1ccccc1`, -7.6%; to `CC1(C)CC(NC(=O)c2ccco2)CC(C)(CNC(=O)c2ccco2)C1` (configuration not stated), 36.9%. For `COc1ccc(N2C(=O)NC(=O)/C(=C/c3cccc(OCCOc4ccccc4)c3)C2=O)cc1`, the displacement worked out at 11.4%. Turning to `O=C(O)CCC(=O)Nc1ccc(Cc2ccc(NC(=O)CCC(=O)O)c(O)c2)cc1O`, the displacement is -1.9%.

`CCOC(=O)CNC(=O)c1ccc([N+](=O)[O-])cc1`: the displacement stood at 10.9%. The figure for `O=C(Nc1ccccc1C(=O)NCc1ccco1)c1ccccc1Br` is -4.2%; for `Cc1cc(N2C(=O)NC(=O)/C(=C\c3ccc(N4CCCCC4)o3)C2=O)ccc1Br` it is 55.5%; for `Cc1ccccc1NS(=O)(=O)c1ccc(NC(=O)c2ccc([N+](=O)[O-])cc2)cc1` it is -1.3%. As to `CCOc1ccc2ccc(OCC)c(/C=C3/NC(=S)NC3=O)c2c1`, the displacement was 4.4%.

Take `CSc1nc2c(c(=O)n1C1CCOC(C)(C)C1)C1(CCCCC1)Cc1ccccc1-2` (configuration not stated): the displacement was -1.8%. As to `Cn1ccnc1Sc1nc(Nc2ccccc2)nc(Nc2ccccc2)n1`, the displacement is -6.7%. Take `Cc1nc2c(sc3nc(C)c(C)c(C)c32)c(=O)o1`: the displacement turned out to be 0%. To `CNC(=O)CN(c1ccc(OC)cc1)S(=O)(=O)c1ccc(OC)c(OC)c1` belongs -11.2%.

Turning to `O=C(/C=C\c1ccccc1)NC(=S)Nc1ccc([N+](=O)[O-])cc1O`, the displacement is -4.6%. The figure for `Cc1ccc(C(=O)Nc2ccccc2C(=O)NC(Cc2c[nH]c3ccccc23)C(=O)O)cc1` (configuration not stated) is 7.1%; for `CC1CCc2c(sc(NC(=O)c3cccnc3)c2C(=O)Nc2ccccc2)C1` (configuration not stated) it is 37.1%; for `CCc1ccc(NC2=C(Cl)C(=O)N(c3ccccc3C)C2=O)cc1` it is 0.6%. To `O=c1cc(-c2ccccc2)nc2cc(-c3cccc(F)c3)[nH]n12` belongs 15.9%; to `CCOc1cccc(C(=O)Nc2cc(-c3nc4cc(C)cc(C)c4o3)ccc2C)c1`, 9.5%. The figure for `O=C(CCN1C(=O)c2cccc3cccc(c23)C1=O)NCc1ccc2c(c1)OCO2` is -23.3%; for `Cc1cc(=O)[nH]c(SCC(=O)N2CCCc3ccccc32)n1` it is -11%. In the case of `Cc1cccc(-c2nc3cc(NC(=O)COc4ccc([N+](=O)[O-])cc4)ccc3o2)c1`, the displacement was 0.3%. The figure for `O=C(c1ccc(-c2ccc(Cl)cc2)o1)N1CCN(c2ccc([N+](=O)[O-])cc2Cl)CC1` is 5.2%; for `O=C(/C=C/c1ccco1)N1CCC(CN2C(=O)c3cccc4cccc(c34)C2=O)CC1` it is 27.9%. To `O=C(Nc1cccc(Cl)c1)c1cc([N+](=O)[O-])ccc1Cl` belongs -7.9%. The figure for `O=C(Nc1ccc(Cl)cc1)Nc1nnc(-c2cccc(Br)c2)s1` is 20.4%. `COc1cccc(C(=O)N2N=C(c3ccc(F)cc3)CC2(O)C(F)(F)F)c1` (configuration not stated): the displacement is -11%. The figure for `COc1ccc(NC(=O)CN(c2cccc(C(F)(F)F)c2)S(C)(=O)=O)cc1OC` is 2.4%. As for `COC(=O)c1ccccc1NC(=S)NC(=O)/C=C/c1ccccc1`, the displacement amounted to 10.2%.

`O=C1C(=O)N(C(c2ccccc2)c2ccccc2)c2ccccc21`: the displacement was -4%. To `Cc1ccoc1C(=O)Nc1ccccc1C(=O)O` belongs 10.5%. To `O=C1c2cccc3cccc(c23)C(=O)N1CCN1CCN(S(=O)(=O)c2ccc(F)cc2)CC1` belongs -13.6%; to `COc1ccc([N+](=O)[O-])cc1-c1ccc(/C=C2\C(=O)NC(=O)N(c3cc(C)cc(C)c3)C2=O)o1`, 92.6%. The figure for `Cc1ccccc1OCC(=O)Nc1c[nH]c(=O)[nH]c1=O` is -31.4%. As for `Cc1ccc2[nH]c3nc(N=Nc4c(O)[nH]c5c(Br)cc(Br)cc45)nnc3c2c1`, the displacement amounted to 9.3%.

For `CCCCOC(=O)CCCN1C(=O)S/C(=C\c2ccccc2)C1=S`, the displacement is -9.5%. To `Cc1ccc(C(C)C)c(OCCOc2cccc(/C=C3/SC(=S)N(C)C3=O)c2)c1` belongs 9.8%; to `CC(C)Oc1ccccc1NC(=O)CSCC(=O)Nc1ccc2ccccc2c1`, -14.6%; to `CC(C)OC(=O)c1ccc(NC(=O)COc2cccc(Cl)c2)cc1`, -17%. As to `CC(C)(Oc1ccc(CCNC(=O)c2ccc(-c3ccccc3)o2)cc1)C(=O)O`, the displacement is -1.4%. Regarding `CS(=O)(=O)N(CC(=O)Nc1ccc(Oc2ccccc2)cc1)c1ccc(Cl)cc1`, the displacement was 17.8%. `CCOC(=O)C1=NNC(C(=O)c2ccccc2)C1c1ccccc1` (configuration not stated): the displacement was 26.7%. To `O=C(Nc1ccc(Cc2ccncc2)cc1)c1cccc(C(=O)Nc2ccc(Cc3ccncc3)cc2)c1` belongs 13.5%; to `CC(C)c1ccc(/C=C/C(=O)Nc2ccccn2)cc1`, -4.2%; to `Cc1cccc(COc2ccc3c(oc(=O)c4ccccc43)c2C)c1`, 12.3%. To `NC1=NC(=O)/C(=C/c2cccc(OS(=O)(=O)c3ccc4ccccc4c3)c2)S1` belongs -35.6%. Regarding `CC(=O)c1c(N2CCN(c3ccccc3)CC2)nc(=S)n(-c2ccccc2)c1C`, the displacement was 5.3%. The figure for `O=C(c1cc(-c2ccccc2)nc2ccccc12)N1CCCC1` is 4.5%. The figure for `c1ccc2sc(SCSc3nc4ccccc4s3)nc2c1` is -2.8%. The figure for `COc1ccccc1N1CCN(C(=O)COc2cccc(C)c2)CC1` is 2.5%; for `CC(C)Oc1cccc(C(=O)N2CCc3ccccc32)c1` it is 38.7%. For `COC(=O)c1c(NC(=O)C(Cl)Cl)sc2c1CCCCCC2`, the displacement was -5.3%. As to `O=C(N/C(=C\c1ccc(-c2cccc([N+](=O)[O-])c2)o1)C(=O)N1CCOCC1)c1ccccc1`, the displacement is 0.4%. To `COc1ccc(C(=O)Nc2nc(C)c(C)s2)cc1OC` belongs -4.9%; to `Cc1cccc(C(C)C)c1NC(=O)COc1ccc([N+](=O)[O-])cc1`, -0.7%.

For `COc1ccc(C(=O)CSc2nnc(Sc3nc4ccccc4[nH]3)o2)cc1`, the displacement came out at 8.3%. The figure for `CC(C)(C)c1cc(-c2ccccc2)no1` is 9.4%. The figure for `CCc1ccc2c(c1)C(c1ccccc1)C(=O)O2` (configuration not stated) is -13%; for `O=C(COc1ccc(Cl)cc1Cl)NNC(=O)CN1C(=O)/C(=C/c2ccc(Cl)cc2Cl)SC1=S` it is 48.6%. The figure for `CCOc1ccc(N(CC(=O)NCCSc2ccccn2)S(C)(=O)=O)cc1` is 7.8%.

`COc1ccc(CCN2C(=O)CSC2c2ccc(Cl)c(Cl)c2)cc1OC` (configuration not stated): the displacement was 30.1%.

For `O=C(/C=C1/NC(=S)N(c2ccccc2)C1=O)c1ccc(Cl)cc1`, the displacement is -10.8%. Turning to `CCOc1ccc(NC(=O)c2cc(Cl)ccc2Cl)cc1`, the displacement stood at 0.6%. To `O=C(Nc1ccc(S(=O)(=O)N2CCCCC2)cc1)c1ccc(Cl)cc1` belongs -2.1%; to `O=C(O)C1C2C=CC(O2)C1C(=O)NCCc1ccccc1` (configuration not stated), 31%. Turning to `CCOC(=O)CNS(=O)(=O)c1ccc(F)cc1`, the displacement is -8.7%. To `CCOC(=O)CSc1nc(-c2ccccc2)cc(-c2ccccc2)n1` belongs -7.5%.

In the case of `O=S(=O)(c1ccc(Cl)cc1)N1CCN(C2CCC(c3ccccc3)CC2)CC1` (configuration not stated), the displacement was -4.6%. The figure for `Brc1ccc(CSc2nnnn2-c2ccccc2)cc1` is -2.9%; for `O=C(O)CCCNC(=O)COc1ccccc1` it is 8.8%; for `O=C(Nc1ccccc1C(F)(F)F)C1CCCC1` it is -0.8%.

`Cc1ccc(OCC(=O)Nc2ccc(I)cc2C)c(C)c1`: the displacement stood at 13.1%. Take `c1ccc(-c2cc(-c3ccccc3)[nH]n2)cc1`: the displacement is -9.6%. The figure for `COc1ccc(/C(N)=N/OC(=O)c2cccc(Cl)c2)cc1` is -3.1%; for `COc1cc(/C=C2\SC(=Nc3ccc(C)c(Cl)c3)NC2=O)ccc1C` it is 12.6%. The figure for `COc1ccccc1N(CC(=O)Nc1ccc(Br)cc1)S(=O)(=O)c1ccccc1` is 1.7%. Consider `CCN(CC)c1ccc(NC(=O)COc2ccc(Cl)cc2C)cc1`, for which the displacement was found to be 5.6%. The figure for `CCOC(=O)c1ccc(NC(=O)c2ccccc2Cl)cc1` is -1.6%; for `CCOC(=O)c1ccc(N2NC(=O)/C(=C/C=C/c3cccc([N+](=O)[O-])c3)C2=O)cc1` it is 10.1%; for `COc1ccc(C2=C/C(=C\c3cc([N+](=O)[O-])ccc3Cl)C(=O)O2)cc1` it is -11.4%. As to `Cc1ccc(C(=O)NCCCNc2ccc(Cl)cc2[N+](=O)[O-])cc1`, the displacement worked out at 0.6%. To `COC(=O)C1=C(C)N(C)C(C)=C(C(=O)OC)C1c1ccc(C(F)(F)F)cc1` belongs -10.4%. In the case of `CCOC(=O)COc1ccc(C2NC(=S)NC(C)=C2C(=O)OC)cc1OC` (configuration not stated), the displacement was 0.8%.

With `CC(c1nc2ccccc2n1C)C(O)(c1ccccc1)c1ccccc1` (configuration not stated), the displacement is 3.1%. To `CCCOc1ccc(C(CC(=O)c2ccc(Cl)cc2)S(=O)(=O)c2ccccc2)cc1` (configuration not stated) belongs -3.2%; to `CCC/C(O)=C1\C(=O)CC(C)(C)CC1=Nc1ccc(OC)cc1`, 6.6%.

On to `CCOC(=O)N1CCN(C(=S)Nc2ccc3nccnc3c2)CC1`, for which the displacement is -8%.

Turning to `COc1ccc(/C=N/n2c(C)nnc2C)cc1Br`, the displacement came to 9.8%. To `Cc1ccc(Br)cc1S(=O)(=O)N1CCOCC1` belongs 3.2%; to `O=C1SC(Nc2ccc(I)cc2)C(=O)N1c1ccccc1` (configuration not stated), 3.3%. On to `CCCOc1ccccc1/C=N/Nc1nncn1N`, for which the displacement is -11.6%. To `CC(=O)Nc1c(C)c(Br)cc(C(=O)O)c1[N+](=O)[O-]` belongs 8.9%. To `O=C(CCc1ccccc1)NNC(=S)Nc1ccccc1` belongs -24%; to `O=C(COc1ccc2c3c(c(=O)oc2c1)CCCC3)OCc1ccccc1`, -4.5%; to `COc1cc(/C=N/NC(=O)CC(=O)NC(C)C)cc(OC)c1OC`, 5.9%.

As for `O=C1S/C(=C\c2cc3c(cc2Br)OCO3)C(=O)N1c1ccccc1`, the displacement was -5.1%. The figure for `CCOC(=O)c1c(NC(=O)c2ccc(Br)o2)sc2c1CCCC2` is 7.1%. To `CC(Oc1ccc2c3c(c(=O)oc2c1)CCCC3)C(=O)c1ccccc1` (configuration not stated) belongs -9.6%.
